Measured values from PubChem BioAssay (NCI).
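Tested at 5 concentrations; 48 h exposure; 96-well plates; endpoints linearly interpolated, else capped at highest concentration. GI50 is the concentration that inhibits growth by half.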 The source holds more than one record for some entries. The list is limited to them. There may be further records. The tests behind the records often covered other concentration ranges, which the source does not state; some values may only mark the edge of a range.

Test system: M14 melanoma
Assay: inhibition of tumour cell growth, NCI panel, 48 h

For `CO[C@@H]1[C@H](OC(=O)NC(=O)CCl)CC[C@]2(CO2)[C@H]1[C@@]1(C)O[C@@H]1CC=C(C)C`, the GI50 was 178 nM and 7.16 µM.
